Assay results published in the supplement of paper PMC3334620.
Over roughly 33,000 sequences, “E-score (-0.5 to 0.5)” has its median near -0.053; the highest 2% begin near 0.37. This is one part of the list.

Biological target: Hap1 (UniProt P0CE41)
Assay: PBM E-score (8-mer binding enrichment) (E-score (-0.5 to 0.5)); higher = stronger / more preferred TF binding; most listed sequences are background and not binding sites
Conditions: protein concentration: 200 nM; construct: GST-DNA-binding domain
Method in brief: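 E-scores (a modified Wilcoxon-Mann-Whitney statistic) were assigned by the Universal PBM Analysis Suite to every ungapped eight-base word pooled with its reverse complement. The input came from universal all-10-mer Agilent arrays made double-stranded by primer extension and probed with GST-tagged yeast transcription factors at about 100-200 nM. Fluorescent anti-GST detected bound protein, and masliner normalised the scans.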

Sequence of UniProt P0CE41 (P0CE41 whole entry): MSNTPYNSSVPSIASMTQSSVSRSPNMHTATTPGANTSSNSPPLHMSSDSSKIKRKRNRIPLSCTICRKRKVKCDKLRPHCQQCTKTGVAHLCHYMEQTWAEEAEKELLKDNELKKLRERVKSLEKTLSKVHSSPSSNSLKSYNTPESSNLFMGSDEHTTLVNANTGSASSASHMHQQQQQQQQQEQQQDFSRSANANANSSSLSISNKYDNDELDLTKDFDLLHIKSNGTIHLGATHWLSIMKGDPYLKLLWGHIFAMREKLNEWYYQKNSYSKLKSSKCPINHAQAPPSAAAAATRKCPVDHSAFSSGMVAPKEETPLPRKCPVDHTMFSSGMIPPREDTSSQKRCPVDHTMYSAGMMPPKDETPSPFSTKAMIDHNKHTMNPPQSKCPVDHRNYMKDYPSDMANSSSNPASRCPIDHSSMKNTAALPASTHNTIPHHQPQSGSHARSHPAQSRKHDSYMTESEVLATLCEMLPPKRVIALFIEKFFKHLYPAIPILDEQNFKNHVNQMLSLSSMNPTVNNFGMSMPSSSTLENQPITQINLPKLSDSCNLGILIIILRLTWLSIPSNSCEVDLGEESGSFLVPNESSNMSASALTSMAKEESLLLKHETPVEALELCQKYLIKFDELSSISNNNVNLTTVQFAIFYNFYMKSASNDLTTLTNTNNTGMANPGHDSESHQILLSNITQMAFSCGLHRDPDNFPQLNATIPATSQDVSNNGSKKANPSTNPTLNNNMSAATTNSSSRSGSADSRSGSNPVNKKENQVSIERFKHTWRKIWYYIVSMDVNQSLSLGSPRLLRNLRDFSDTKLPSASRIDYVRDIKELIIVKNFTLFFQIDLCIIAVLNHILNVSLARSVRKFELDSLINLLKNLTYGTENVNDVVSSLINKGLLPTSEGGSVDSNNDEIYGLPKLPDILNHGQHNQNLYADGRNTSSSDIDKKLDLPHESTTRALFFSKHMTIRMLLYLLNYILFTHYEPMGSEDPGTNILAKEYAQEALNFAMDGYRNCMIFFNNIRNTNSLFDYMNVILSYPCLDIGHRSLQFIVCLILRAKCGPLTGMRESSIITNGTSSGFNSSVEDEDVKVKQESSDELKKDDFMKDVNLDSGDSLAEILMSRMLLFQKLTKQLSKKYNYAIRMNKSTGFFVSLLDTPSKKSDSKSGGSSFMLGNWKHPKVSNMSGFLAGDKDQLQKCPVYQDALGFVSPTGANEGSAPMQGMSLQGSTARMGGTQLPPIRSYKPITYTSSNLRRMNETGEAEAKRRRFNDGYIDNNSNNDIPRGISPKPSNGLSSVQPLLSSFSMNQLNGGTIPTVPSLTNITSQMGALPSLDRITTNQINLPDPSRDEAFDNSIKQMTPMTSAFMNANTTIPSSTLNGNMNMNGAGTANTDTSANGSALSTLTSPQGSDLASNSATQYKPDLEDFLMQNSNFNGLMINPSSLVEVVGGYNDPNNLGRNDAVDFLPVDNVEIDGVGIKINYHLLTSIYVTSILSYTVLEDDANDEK

Sequence	PBM E-score
ACTGAAAA	-0.0403
CTTCTCTC	-0.0393
CTTAGCTA	-0.158
ACGCCTCG	0.061
ACAAGGGT	-0.161
GGAACTCA	0.0924
TCATGGAA	-0.0437
AGTAGCAC	-0.165
CTGACCGC	0.211
AAGGATAG	-0.0396
TCATAGGA	-0.112
ACATGGGT	-0.141
AAGTGGAG	-0.18
CACGACGA	-0.176
ATCCGTTC	0.233
AATACAAT	-0.0698
AACGGTGA	0.185
CAAAACGA	-0.16
ATGAGATC	-0.155
CAAATTAA	-0.167
GTCTCGTA	-0.0726
GAGGATCC	0.176
ACACATGC	-0.0573
ATCACCTA	-0.327
TAAACAGA	-0.164

Sequence	PBM E-score
CTCAAGCA	-0.346
AATCATGC	-0.128
CATTCTGC	0.0417
CCTCCAAG	-0.326
ACTCATCA	-0.0308
ACCGTTAT	0.193
AGGCACCA	-0.0901
AATCGATA	0.0253
AGAGCCCG	0.125
GAACACCA	-0.0651
ATTAACAA	-0.0497
GAATGACC	0.221
ACGCCTAC	-0.0649
AATAGTTA	-0.0887
CCTTCCGC	0.222
ACCCATCC	0.0641
AGCACTTC	-0.0434
GAGCAATA	-0.174
AAGTGGGG	-0.0398
CATTAGTA	0.0201
TCGATAGA	-0.0827
CACATCTC	0.0239
TCGTTAAA	0.0807
TCATCAAA	-0.079
CACCTGAG	-0.3

Sequence	PBM E-score
CGAATATC	0.0376
AGGATAAG	-0.0379
ACAGGAAT	-0.135
GCGGCTAA	0.0795
TGGGTGAA	0.0419
GACCAGGA	-0.0417
CGATCGAC	0.124
ATTCAATA	-0.0774
TTCATCAA	0.0253
TATTCTAA	-0.123
TAGCATGA	-0.153
TTCGTCAA	-0.123
AAGAACGT	-0.194
CCCCATGC	0.0776
ATCAGTAC	-0.0691
CAGACCCG	0.293
ACGGGCAA	0.058
CTACTATC	0.0863
CAATTCAG	-0.227
GTCTAAAC	0.0894
AACCAATG	-0.255
AATTATAG	-0.109
GCGTATGA	-0.0917
AAGCCAAC	-0.202
AGGTAAGA	-0.0699

Sequence	PBM E-score
CTAGCGAG	-0.248
ATCAACAT	-0.109
CCAGTCCC	-0.0296
CAGCGTGC	-0.0404
TGCCTCCA	-0.287
ATTTTCAC	0.0603
GACCTCTC	0.0308
CTCGGAAG	0.174
AACTACCG	0.236
CTAGAGAC	-0.258
GGGGTTGA	-0.0627
GATAAACC	0.174
CGGGTCGA	0.108
ACATGTGC	-0.00587
ACGGATTG	0.229
GATGCTGC	-0.183
AAAGGGTG	-0.185
CCTACCGA	0.0508
CGTTGGCA	-0.0275
AACATCGT	0.0338
ACCGTGTG	0.0184
GAGGTCTA	-0.299
GTTAGGCA	-0.257
CGCAATCC	0.246
AATTACTC	-0.0177

Sequence	PBM E-score
ACTGTCAG	-0.224
CGGCTTTC	0.259
AGCTAGAG	-0.28
ACCCCTCT	-0.00322
ACTCCTTC	-0.209
CCAAATAG	-0.14
CATAAATA	-0.199
CGGTGTAC	0.139
CTGAAAAC	-0.107
ATACTGAC	-0.0815
TCGAACGA	-0.153
GAGGTATC	0.0796
GCGATGGA	0.252
AGTATATA	0.177
CGCCCCAC	-0.148
AGCTTGCC	-0.108
AGGACTCC	0.0465
AACGAGCC	-0.0331
CCACTAGA	-0.227
CCCACGAG	-0.107
ACGTGGAG	-0.322
AGACTGTC	-0.108
CCGGCTAC	0.214
ATGCCCTA	-0.164
CCTCTTCG	0.04

Sequence	PBM E-score
CTTGCCTC	0.0643
CTGACGCC	-0.00359
AAAGGTAG	-0.311
CTGCCCCC	-0.263
ACCACCTA	-0.172
CACTGAAC	-0.0571
ACGCGGTC	0.179
ATCCCTAG	-0.146
AAGGGCAC	-0.161
GCATTGCA	-0.015
CGCGGCTA	0.301
CGGAGTCC	0.211
ACTCATAA	-0.101
CTCTAAAG	-0.171
AGCTCATG	-0.257
ACGCAACC	0.00928
GACACATC	0.0707
AAGAGCCA	-0.0336
CCTTTTAA	-0.0918
CTGCGATA	0.00734
CTCATGGA	-0.179
ATCCAATG	-0.241
AAGAGACC	-0.0519
GGGATGTA	0.124
GTATTGAC	-0.188

Sequence	PBM E-score
ACGACCGA	0.275
GGGGAAAC	0.212
GACACTCC	0.0522
CCAGGAGC	-0.101
CAAGCCCA	-0.29
CAATCGAA	0.126
GTTTCTCA	-0.102
TAGAGGCA	-0.304
CACCATCA	-0.22
AAGCTGGA	-0.144
AACTGGTG	-0.28
AGATACGG	0.144
TAAAGGGA	-0.153
AAGTCCGA	0.467
GATATAGC	0.235
CACCATAA	-0.0857
TACCAGCA	-0.0959
ATCATTCG	0.0233
GGGAGCAC	0.0847
AGGTGTGG	-0.00938
ACCTGTGA	-0.149
GTCTAGGA	-0.281
GTATTTTA	-0.155
AGATGGCG	-0.0276
ACTTATAA	0.0433

Sequence	PBM E-score
TCTGAGAA	-0.245
ATAAGTCA	-0.0919
CAAGCCCG	0.182
AGTAGCAG	-0.173
ATCGCGAG	0.119
GAAGTTAC	0.0894
GATTGTAC	0.0804
CCAATACA	-0.239
TCATGAGA	-0.164
CAAAGGAG	-0.137
CATGACGA	-0.0159
GACGGCCA	0.0206
ATAAAGAG	-0.194
AAACGTGT	-0.104
CACTGATG	-0.289
GCGCCGTA	0.222
CAAGCCGC	-0.0838
GCTTTGTA	-0.0892
ATTGCATG	-0.0278
CCCTGCCC	-0.215
AGTAAATG	0.078
AACGATCC	-0.0248
ACTTTGAG	-0.228
ACGGTACA	-0.122
AATGGTCG	-0.0147

Sequence	PBM E-score
AAGGGGGT	-0.253
CAGTCCTC	-0.123
ATCCCGTC	0.0828
CGTCCCTC	-0.256
CCGTTTCC	0.199
AAGTGGCT	-0.0157
GCAGACTA	-0.309
CATGTTCG	-0.00257
GGGATGGA	0.0825
TAACGTGA	-0.306
CCGAAAGC	0.369
CGAAAAAA	0.145
ATCCCAGC	0.0523
CTTACCTC	0.0631
ACGCTGCG	-0.0275
AAGTAGTC	-0.0371
CAAGGCCG	0.123
CGCTGCAG	-0.0283
TCAGAGGA	-0.157
